Test results as given in PubChem BioAssay AID686979 (National Center for Advancing Translational Sciences (NCATS), 2013).
Values joined by “and” are separate entries in the source; they are usually repeats but may differ in a detail not shown here. Equal values may be shown once. Screen size: about 420,000 compounds; about 50,000 (12%) were called active. This list was built around the results that the source calls inconclusive (neither active nor inactive); the mix of calls is not that of the screen. Calls follow the shape of the dose curve; as a rule, active = well fitted inhibition curve with a large enough effect; inconclusive = small, poorly fitted or top-dose-only effect; inactive = flat fitted curve, though single readings scatter. Potencies beside an inconclusive call are fits to weak or partial responses and may not hold up.

Assay: qHTS for Inhibitors of human tyrosyl-DNA phosphodiesterase 1 (TDP1): qHTS in cells in presence of CPT; also: nearly all actives have a fitted effect of over 55% in size
Conditions: chicken DT40 Tdp1-/-;hTDP1 cells + 20 nM CPT, ATP luminescence, 48 h; series mostly up to 46.2 µM
In short: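 Cell growth measured by CellTiter-Glo luminescence after a minimum 48 h, 37 C compound exposure with 20 nM CPT in Tdp1-knockout DT40 cells stably expressing hTDP1, seeded 400/well; qHTS titration format.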
Potency is read from the fitted curve at half-maximal effect; tags tell the direction and shape of the fitted curve.

| Compound | Potency |
| --- | --- |
| O=C(c1cccs1)N1CCN(C(=O)c2cccs2)C1=S | active: 5.8 µM |
| O=C(NCC1CCCO1)C1CCN(C2CCN(CCCC3CCCC3)CC2)CC1 (centres undefined) | active: 14.6 µM |
| CCOc1ccc(Cn2nnc(-c3ccc(S(C)(=O)=O)cc3)n2)cc1OCC | inactive |
| O=C(CN1c2cccc3cccc(c23)S1(=O)=O)NCCc1ccc(F)cc1 | inactive |
| OCC1OC(Oc2c(Br)cc(Br)cc2Br)C(O)C(O)C1O (centres undefined) | inactive |
| Cc1nn2c(C(F)(F)F)c3c(nc2c1-c1ccccc1)CCC3 | inactive |
| Cc1nn(-c2ccccc2)c(N)c1Sc1ccccc1[N+](=O)[O-] | inconclusive: 25.9 µM [inhibitor, single point] |
| CCOC(=O)C1CCN(CC(=O)N(CC(C)C)c2c(N)n(CC(C)C)c(=O)[nH]c2=O)CC1 | inconclusive: 6.51 µM [inhibitor, single point] |
| Cc1ccc(C(=O)Nc2ccccc2N2CCCCC2)cc1S(=O)(=O)N1CCOCC1 | inconclusive: 29.1 µM [inhibitor, single point] |
| O=C(NCCc1ccc(Cl)cc1)C1CCN(C(=O)c2ccc(F)cc2)CC1 | inconclusive: 29.1 µM [inhibitor, single point] |
| COc1cc(/C(C)=C/c2ccccc2)c2c(c1)oc1ccccc12 | inconclusive: 22.4 µM [inhibitor, single point] |
| COc1ccc(COc2cc(-c3cccc(OC)c3)nc3ccc(NC(=O)c4ccc(C)cc4)cc23)cc1 | inconclusive: 20.6 µM [inhibitor, single point] |
| COc1ccc(-c2nc3cnc(N4CCNCC4)nc3n(CCc3ccccc3)c2=O)cc1 | inconclusive: 29.1 µM [inhibitor, single point] |
| COc1cc(NC(=O)CNC(=O)Cn2ccc3ccccc3c2=O)cc(OC)c1OC | inactive |
| Cc1cccc(NC(=O)Nc2c(C)[nH]c(=O)[nH]c2=O)c1C | inactive |
| CC(C)c1ccc(Nc2ncnc3c2nc2n3CCCC2)cc1 | inconclusive: 25.9 µM [inhibitor, single point] |
| CC1(C)CC(=O)c2c(noc2-c2ccccc2)C1 | inactive |
| COc1ccc(OC)c2sc(N3CCN(C(=O)c4ccc([N+](=O)[O-])s4)CC3)nc12 | inconclusive: 23.1 µM [inhibitor, single point] |
| O=C(Nc1ccc2c(c1)OCCO2)c1cccc(S(=O)(=O)N2CCCCC2)c1 | inactive |
| Cc1ccc(N2CCN(C(C(=O)Nc3c(C)cccc3C)c3cccc(F)c3)CC2)cc1 (centres undefined) | inconclusive: 29.1 µM [inhibitor, single point] |
| CCOc1ccc(NC(=O)CSc2nc(=O)n(CCCN3CCOCC3)c3c2CCC3)cc1 | inactive |
| CCOC(=O)N1CCC2(CC1)C(C#N)=C(N)Oc1c2sc2nc(C)cc(C)c12 | inconclusive: 29.1 µM [inhibitor, single point] |

| Compound | Potency |
| --- | --- |
| Cc1c(C=O)c2ccccc2n1CCOc1ccccc1 | inconclusive: 29.1 µM [inhibitor, partial curve, poor fit] |
| Cc1ccc(F)cc1NC(=O)CSc1nnc(CNC(=O)c2ccco2)n1C | inactive |
| CCC(=O)Nc1ccccc1-c1nc2ccccc2n(C(C)C(=O)Nc2cccc(Cl)c2C)c1=O (centres undefined) | inconclusive: 23.1 µM [inhibitor, single point] |
| COc1ccccc1NC(=O)CSc1nc2ccccc2c(=O)n1CCNC(C)=O | inconclusive: 6.51 µM [inhibitor, partial curve] |
| C[C@H](CO)N1C[C@H](C)[C@@H](CN(C)Cc2ccncc2)Oc2c(NC(=O)CCCCCC(=O)Nc3ccccc3N)cccc2C1=O | inconclusive: 23.1 µM [inhibitor, single point] |
| Cc1ccc(S(=O)(=O)Nc2cc3c(C(=O)O)c(C)oc3c3ccccc23)c(C)c1 | inactive |
| CCN(C(=O)CN1C(=O)S/C(=C\c2ccc(Cl)cc2)C1=O)C1CCS(=O)(=O)C1 (centres undefined) | inactive |
| CN(Cc1ccc2c(c1)OCCO2)C(=O)CN1C(=O)NC2(CCCCC2)C1=O | inactive |
| O=S(=O)(NC1CC2CCC1C2)c1ccc(Br)s1 (centres undefined) | inconclusive: 18.4 µM [inhibitor, single point] |
| CC1CN(C)C(C)c2c1oc1ccc([N+](=O)[O-])cc21 (centres undefined) | inactive |
| CN(Cc1ccco1)c1ncncc1-c1cccc(C#N)c1 | inactive |
| O=C(Nc1cccc(-c2nc3ccccc3s2)c1)c1cccs1 | inconclusive: 23.1 µM [inhibitor, single point] |
| OC(CNC1CCCc2ccccc21)COc1c(Cl)cccc1Cl (centres undefined) | inconclusive: 18.4 µM [inhibitor, single point] |
| COc1ccc(C(CNC(=O)c2cccc([N+](=O)[O-])c2)N2CCOCC2)cc1 (centres undefined) | inconclusive: 29.1 µM [inhibitor, single point] |
| Cc1ccc(S(=O)(=O)N2CCCCC2)cc1NC(=O)COC(=O)C1CC2C=CC1C2 (centres undefined) | inconclusive: 18.4 µM [inhibitor, single point] |
| COc1ccc(CCNc2nc(-c3ccc(F)cc3)cc(C(F)(F)F)n2)cc1OC | inconclusive: 29.1 µM [inhibitor, single point] |
| Cc1ccc2c(c1)sc[n+]2Cc1ccccc1 | active: 13 µM |
| Cc1cc(C)n(-c2ccc(C(=O)N3CCN(S(=O)(=O)c4ccc(C(C)C)cc4)CC3)cc2)n1 | inconclusive: 23.1 µM [inhibitor, single point] |
| COC(=O)c1cnn(-c2ccc(C(=O)Nc3ccc(OC(F)(F)F)cc3)cc2)c1N | inconclusive: 0.651 µM [inhibitor, full curve, poor fit] |
| COc1ccccc1S(=O)(=O)Cc1ccc(C(=O)N2CCN(c3cccc(Cl)c3)CC2)o1 | active: 6.51 µM |
| COc1ccc(/C=C/C(=O)c2ccc(OC)cc2OC)cc1 | inconclusive: 33.5 µM [inhibitor, single point] and inconclusive: 20.6 µM [inhibitor, single point] |
| OCC1(Cc2ccccc2)CCN(Cc2cnc(-c3ccc(Cl)cc3)nc2)CC1 | inconclusive: 29.1 µM [inhibitor, single point] |
